Experimental data published in the supplement of paper PMC4967469.

Legend:
Test in all cases: Viability of human cancer cell lines after 72 h of drug (GDSC screen)
BAY 61-3606 = compound: COc1ccc(-c2cc3nccn3c(Nc3ncccc3C(N)=O)n2)cc1OC [BAY 61-3606]; conditions: top dose 8 µM; top dose inferred
Description: (§1)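 Human cancer cell lines in 384-well plates, medium with 10% serum, drug for 72 h over a 256-fold dose range (nine 2-fold or five 4-fold steps up to the top dose). Adherent lines were fixed and stained with the nucleic acid dye Syto60, suspension lines read with resazurin; signal relative to control wells, capped at 0 and 100%. One two-parameter sigmoid per drug and line, fitted in a mixed model over all curves with the slope shared within a line.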

KIN001-266 = compound: CCN1CCC(n2cc(CNc3cc(Cl)c4ncc(C#N)c(Nc5ccc(F)c(Cl)c5)c4c3)nn2)CC1 [KIN001-266]; conditions: top dose 20 µM; top dose inferred
Description: as §1

QL-XII-47 = compound: C=CC(=O)N1CCc2ccc(-n3c(=O)ccc4cnc5ccc(-c6cnn(C)c6)cc5c43)cc21 [QL-XII-47]; conditions: top dose 10.24 µM; top dose inferred
Description: as §1

CCT007093 = compound: O=C1/C(=C/c2cccs2)CC/C1=C\c1cccs1 [CCT007093]; conditions: top dose 6.6 µM; top dose inferred
Description: as §1

Cell Line	AUC (BAY 61-3606)	IC50 (BAY 61-3606)	AUC (KIN001-266)	IC50 (KIN001-266)	AUC (QL-XII-47)	IC50 (QL-XII-47)	AUC (CCT007093)	IC50 (CCT007093)
BB49-HNC (head and neck, adherent)	0.75	3.61 µM	0.969	> 20 µM	0.978	> 10.2 µM		
BC-3 (B-cell lymphoma, suspension)	0.772	2.78 µM	0.875	16 µM	0.879	8.59 µM		
BICR31 (head and neck, adherent)	0.929	> 8 µM	0.949	> 20 µM	0.802	5.12 µM		
CAL-62 (thyroid, adherent)	0.921	> 8 µM	0.918	> 20 µM	0.725	2.68 µM		
CAL-148 (breast, suspension)	0.96	> 8 µM	0.83	11.3 µM	0.929	> 10.2 µM		
CAS-1 (glioma, adherent)	0.762	3.89 µM	0.863	> 20 µM	0.785	6.19 µM		
COLO-792 (melanoma, adherent)	0.988	> 8 µM	0.984	> 20 µM	0.653	1.68 µM		
Calu-6 (lung adenocarcinoma, adherent)	0.85	7.53 µM	0.895	> 20 µM	0.871	> 10.2 µM		
Caov-3 (ovary, adherent)	0.967	> 8 µM	0.941	> 20 µM	0.879	8.3 µM		
DB (B-cell lymphoma, suspension)	0.833	6.09 µM	0.837	15.9 µM	0.681	2.2 µM		
DOHH-2 (B-cell lymphoma, suspension)	0.736	2.31 µM						
ES4 (Ewing sarcoma, adherent)	0.64	1.29 µM	0.724	5.99 µM	0.67	2.05 µM		
GAK (melanoma, adherent)	0.967	> 8 µM	0.865	16.3 µM	0.976	> 10.2 µM		
GR-ST (lymphoblastic leukaemia, suspension)	0.78	4.02 µM	0.828	16 µM	0.581	1.12 µM		
HCC1599 (breast, suspension)	0.758	3.15 µM	0.859	> 20 µM	0.639	1.64 µM		
HCC-33 (small cell lung carcinoma, adherent)	0.922	> 8 µM	0.876	> 20 µM	0.533	0.786 µM		
HCC-78 (lung adenocarcinoma, adherent)	0.826	6.02 µM	0.837	16.9 µM	0.6	1.27 µM		
HT-1376 (bladder, adherent)	0.777	3.8 µM	0.982	> 20 µM	0.985	> 10.2 µM		
Hs-445 (Hodgkin lymphoma, suspension)	0.588	0.853 µM	0.862	15 µM	0.393	0.333 µM		
KP-N-YN (neuroblastoma, adherent)	0.904	> 8 µM	0.981	> 20 µM	0.968	> 10.2 µM		

Cell Line	AUC (BAY 61-3606)	IC50 (BAY 61-3606)	AUC (KIN001-266)	IC50 (KIN001-266)	AUC (QL-XII-47)	IC50 (QL-XII-47)	AUC (CCT007093)	IC50 (CCT007093)
KP-N-YS (neuroblastoma, adherent)	0.843		0.784	9.86 µM	0.55	0.896 µM		
LCLC-97TM1 (large cell lung carcinoma, adherent)	0.517	0.559 µM	0.808	11.6 µM	0.432	0.41 µM		
LoVo (large intestine, adherent)	0.746	2.57 µM	0.939	> 20 µM	0.968	> 10.2 µM		
MC-IXC (neuroblastoma, adherent)	0.973	> 8 µM	0.877	11.3 µM	0.66	1.57 µM		
MDA-MB-330 (breast, adherent)	0.978	> 8 µM	0.952	> 20 µM	0.688	2.34 µM		
MHH-NB-11 (neuroblastoma, adherent)	0.946	> 8 µM	0.871	> 20 µM	0.628	1.5 µM		
MMAC-SF (melanoma, adherent)	0.935	> 8 µM	0.867	19.5 µM	0.677	2.05 µM		
NCI-H630 (large intestine, adherent)			0.863	19.5 µM	0.845	8.24 µM	0.984	> 6.6 µM
NK-92MI (lymphoid neoplasm, suspension)	0.705	1.8 µM			0.427	0.41 µM		
NUGC-4 (stomach, adherent)			0.562	1.85 µM	0.964	> 10.2 µM	0.988	> 6.6 µM
OACM5-1 (oesophagus, semi-adherent)			0.754	7.53 µM	0.42	0.377 µM	0.984	> 6.6 µM
OACp4C (oesophagus, adherent)			0.705	5.35 µM	0.59	1.18 µM	0.979	> 6.6 µM
OC-314 (ovary, adherent)			0.555	1.73 µM	0.758	3.09 µM	0.976	> 6.6 µM
OCUM-1 (stomach, adherent)			0.975	> 20 µM	0.979	> 10.2 µM	0.987	> 6.6 µM
OV-7 (ovary, adherent)			0.801	16.4 µM	0.57	1.09 µM	0.96	> 6.6 µM
OV-17R (ovary, adherent)			0.699	5.75 µM	0.7	2.97 µM	0.98	> 6.6 µM
OV-56 (ovary, adherent)			0.887	> 20 µM	0.615	1.31 µM	0.988	> 6.6 µM
OVCA420 (ovary, adherent)			0.9	> 20 µM	0.953	> 10.2 µM	0.976	> 6.6 µM
OVCA433 (ovary, adherent)			0.87	> 20 µM	0.771	4.38 µM	0.968	> 6.6 µM
OVK-18 (ovary, adherent)			0.895	> 20 µM	0.74	3.4 µM	0.961	> 6.6 µM

Cell Line	AUC (BAY 61-3606)	IC50 (BAY 61-3606)	AUC (KIN001-266)	IC50 (KIN001-266)	AUC (QL-XII-47)	IC50 (QL-XII-47)	AUC (CCT007093)	IC50 (CCT007093)
PEO1 (ovary, adherent)			0.836	14 µM	0.841	7.56 µM	0.987	> 6.6 µM
QGP-1 (pancreas, adherent)			0.899	> 20 µM	0.854	> 10.2 µM	0.979	> 6.6 µM
RCC-AB (kidney, adherent)			0.838	19.8 µM	0.572	1.07 µM	0.981	> 6.6 µM
RCC-ER (kidney, adherent)			0.959	> 20 µM	0.789	5.12 µM	0.978	> 6.6 µM
RCC-FG2 (kidney, adherent)			0.862	> 20 µM	0.807	7.05 µM	0.921	> 6.6 µM
RCC-JF (kidney, adherent)			0.849	18 µM	0.568	1.01 µM	0.96	> 6.6 µM
RCC-JW (kidney, adherent)			0.859	17.3 µM	0.519	0.72 µM	0.983	> 6.6 µM
RCC-MF (kidney, adherent)			0.744	7.87 µM	0.524	0.757 µM	0.939	> 6.6 µM
SK-GT-4 (oesophagus, adherent)			0.869	> 20 µM	0.502	0.647 µM	0.982	> 6.6 µM
SK-MEL-5 (melanoma, adherent)			0.956	> 20 µM	0.853	> 10.2 µM	0.981	> 6.6 µM
SK-MG-1 (glioma, adherent)			0.882	> 20 µM	0.931	> 10.2 µM	0.986	> 6.6 µM
SNU-61 (large intestine, adherent)			0.923	> 20 µM	0.526	0.77 µM	0.978	> 6.6 µM
SNU-81 (large intestine, adherent)			0.957	> 20 µM	0.834	10.2 µM	0.979	> 6.6 µM
SNU-407 (large intestine, adherent)			0.968	> 20 µM	0.906	> 10.2 µM	0.957	> 6.6 µM
SNU-C5 (large intestine, adherent)			0.95	> 20 µM	0.87	> 10.2 µM	0.986	> 6.6 µM
SU-DHL-10 (B-cell lymphoma, suspension)			0.92	14.3 µM	0.474	0.554 µM	0.997	> 6.6 µM
SW1116 (large intestine, adherent)			0.967	> 20 µM	0.983	> 10.2 µM	0.985	> 6.6 µM
TE-4 (oesophagus, adherent)			0.98	> 20 µM	0.983	> 10.2 µM	0.937	> 6.6 µM
UWB1.289 (ovary, adherent)			0.864	> 20 µM	0.912	> 10.2 µM	0.966	> 6.6 µM
YH-13 (glioma, adherent)			0.872	> 20 µM	0.734	3.11 µM	0.985	> 6.6 µM

By IC50 is meant the dose at which the fit gives 50% viability; a fit beyond the top or the lowest dose is shown as a bound at that dose. AUC is the area under the same curve over the 256-fold range up to the top dose, as a fraction; values near 1 show little effect. An inferred top dose is not printed in the source and was worked back from the curve model.
